Experimental data as given in article PMC3040265 (Biochimica et biophysica acta, 2010).

Experiments:
[1] = target: (wild type) ferritin heavy chain (human, UniProt P02794); experiment: native gel or EMSA
native gel or EMSA = target: the molecule itself; experiment: native gel or EMSA

UniProt P02794, sequence (P02794 whole entry): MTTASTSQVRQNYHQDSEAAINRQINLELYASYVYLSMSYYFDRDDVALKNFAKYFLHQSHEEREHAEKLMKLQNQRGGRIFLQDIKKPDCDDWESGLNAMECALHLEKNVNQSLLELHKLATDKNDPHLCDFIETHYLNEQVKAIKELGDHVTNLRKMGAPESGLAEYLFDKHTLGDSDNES

B1: wild type ferritin light chain (natural protein)
chain: not shown
Q: Does B1 bind [1]?
A: binds

Q: Does B1 bind (native gel or EMSA)?
A: binds
